PubChem BioAssay AID1745853 (National Center for Advancing Translational Sciences (NCATS), 2022)
This is one part of the list. These are further read-outs of the screen, such as a control signal, another cell line or another target. No call is given for them.

How the values were obtained:
Experiment in all cases: Primary Screen for Target Class Profiling of Small Molecule Inhibitors of Methyltransferases
[1] = target: Glycine N-methyltransferase (Homo sapiens) (UniProt Q14749); settings: purified enzyme, MTase-Glo SAH luminescence; measured here: GNMT inhibition; at 40 µM; stronger effect = lower value
Summary of the method: (§1)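 Each enzyme was reacted with SAM and its substrate, with compounds tested once at 40 uM; SAH formed was read by MTase-Glo luminescence.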

[2] = target: Guanidinoacetate N-methyltransferase (Homo sapiens) (UniProt Q14353); settings: purified enzyme, MTase-Glo SAH luminescence; measured here: GAMT inhibition; at 40 µM; stronger effect = lower value
Summary of the method: as §1

[3] = target: Histamine N-methyltransferase (Homo sapiens) (UniProt P50135); settings: purified enzyme, MTase-Glo SAH luminescence; measured here: HNMT inhibition; at 40 µM; stronger effect = lower value
Summary of the method: as §1

[4] = target: Nicotinamide N-methyltransferase (Homo sapiens) (UniProt P40261); settings: purified enzyme, MTase-Glo SAH luminescence; measured here: NNMT inhibition; at 40 µM; stronger effect = lower value
Summary of the method: as §1

[5] = target: Phenylethanolamine N-methyltransferase (Homo sapiens) (UniProt P11086); settings: purified enzyme, MTase-Glo SAH luminescence; measured here: PNMT inhibition; at 40 µM; stronger effect = lower value
Summary of the method: as §1
% is set by controls: 0 for no effect and ±100 for the full control effect.

SMILES | activity change, negative = inhibition [1] | activity change, negative = inhibition [2] | activity change, negative = inhibition [3] | activity change, negative = inhibition [4] | activity change, negative = inhibition [5]
O=[S+]1([O-])NC2(CCCN(Cc3ccsc3)C2)CNc2ccccc21 (stereo not given) | -39.1% | -6.97% | -3.39% | -12.6% | -9.76%
COc1ccc(OC)c(S(=O)(=O)N2CC[C@@H]3COCCN(Cc4ccccc4)[C@@H]3C2)c1 | -16.4% | -4.79% | -11.1% | -11.5% | -11.4%
Cc1cc2c(cc3n2CC(C)(C(=O)NC2CCCCCC2)N(CCN2CCOCC2)C3=O)o1 (stereo not given) | 3.78% | 0% | 10.6% | -4.91% | 4.05%
Fc1ccc(CNc2nc3c(-c4ccc(F)cc4)nnn3c3ccccc23)cc1 | -0.95% | -0.462% | 0.521% | -4.2% | -1.76%
COc1cccc(CCC(=O)N2CC(F)(F)C[C@H]2c2nc(C)no2)c1 | -1.23% | -0.156% | 1.55% | -1.25% | 2.51%
CC1(C(=O)NC2CCCCC2)Cn2nc(C3CC3)cc2C(=O)N1Cc1ccccc1Cl (stereo not given) | -4.05% | 2.55% | 2.04% | -5.28% | -0.804%
CCCCN1C(=O)c2cc(C(=O)N3CCN(CCC)CC3)nn2CC1(C)C(=O)NC1CCCC1 (stereo not given) | 5.72% | 0% | 9.21% | 3.52% | 2.55%
CC(C)N(C)Cc1nnnn1CC(=O)N1CCC(CCn2cccn2)CC1 | 1.83% | 0.236% | 0.462% | 3.8% | 8.98%
COc1ccc(OC)c(NC(=O)c2sc(=S)n3c2[nH]c(=O)c2ccc(Cl)cc23)c1 | -19.8% | 0.502% | -16.9% | -12.5% | -67.9%
Cc1ccccc1CNC(=O)CNC(=O)C1(C)Cn2c(cc3ccccc32)C(=O)N1C (stereo not given) | 0.285% | 0% | 11.6% | 3.78% | 3.27%
COc1ccc2cc3n(c2c1)CC(C)(C(=O)NC1CCCCC1)N(Cc1ccc(C)cc1)C3=O (stereo not given) | 4.02% | 1.36% | 8.18% | 1.1% | 2.07%
CCOC(=O)[C@H]1O[C@@H]1C(=O)N[C@@H](CC(C)C)C(=O)NCCC(C)C | -4.56% | -9.25% | 9.58% | -11.8% | 2.16%
Cc1ccc(C(=O)Cn2nc3n(CCC(C)C)c(=O)c4ccc(C(=O)NC5CCCC5)cc4n3c2=O)cc1 | 4.31% | 4.82% | 4.44% | 0.553% | 0.386%
Cc1nc(-c2ccc(CNC(=O)CN3CCN(c4ncccn4)CC3)cc2)no1 | -3.63% | -0.382% | -0.108% | -1.21% | -3.36%
CCOc1ccc(CCN2C(=O)c3cc(C(=O)OC)nn3CC2(C)C(=O)NC2CCCCC2)cc1 (stereo not given) | 5.12% | 0.735% | 11.9% | 6.07% | 4.78%
C[C@]1(CO)[C@H]2Cc3sc(-c4ccsc4)nc3[C@@H](CC(=O)NCc3ccco3)[C@]2(C)CC[C@H]1O | -12.2% | -11.3% | -5.62% | -6.52% | -1.79%
CC(=O)Nc1ccc(OCC(=O)NCc2ccccc2C)nc1 | -4.56% | -5.4% | -7.73% | -9.72% | -9.78%
CC(C)(C)c1cc2n(n1)CC(C)(C(=O)NC1CCCCC1)N(Cc1ccc(Cl)cc1)C2=O (stereo not given) | -6.5% | -2.57% | -2.69% | -8.4% | -4.82%
COc1ccc(C(=O)NC[C@H]2Cn3ccnc3CO2)cc1 | -1.92% | -3.99% | -2.88% | -3.41% | 5.33%
CC1(C(=O)NCc2ccccc2)Cn2cnc(C(=O)N3CCc4ccccc43)c2C(=O)N1C1CC1 (stereo not given) | -0.365% | 0% | 0.947% | 9.08% | 5.88%

SMILES | activity change, negative = inhibition [1] | activity change, negative = inhibition [2] | activity change, negative = inhibition [3] | activity change, negative = inhibition [4] | activity change, negative = inhibition [5]
COc1ccc(-c2cc3n(n2)CC(C)(C(=O)NCc2ccccc2)N(CCc2ccco2)C3=O)cc1 (stereo not given) | 8.28% | 0.726% | 7.69% | 10% | 2.95%
CC1=C2CC(=O)C(C)CC/C=C(\C)CC2(O)OC1=O (stereo not given) | 3.49% | 4.93% | 7.86% | -8.47% | 0.445%
CCCN1C(=O)c2cc(C(=O)NCc3ccc(OC)cc3)nn2CC1(C)C(=O)NC1CCCC1 (stereo not given) | 1.95% | 0% | 2.68% | 4.67% | 0.117%
CCN1CCN(Cc2ccc(NC(=O)Nc3ccc(Oc4cc(NC)ncn4)cc3)cc2C(F)(F)F)CC1 | 1.05% | 4.1% | -76.8% | -17.1% | -8.43%
CNCCc1cnc(CCC(c2ccccc2)c2ccccc2)[nH]1 | -24.2% | 12.6% | -25.6% | -17.7% | 12.5%
CN(C)Cc1nnc(C2CC(NC(=O)c3cc(-c4cccn4C)n[nH]3)C2)n1C (stereo not given) | -7.7% | -5.1% | -0.867% | -10.3% | -4.21%
CCn1c(CO)nnc1C1CC(NC(=O)c2ccc3nc(C)oc3c2)C1 (stereo not given) | -2.81% | -5.83% | -1.45% | -6.8% | -3.1%
COc1ccc(-c2cc(C(=O)NCC3CC3)c3c(C4CCCN4)noc3n2)cc1 (stereo not given) | -8.44% | -9.9% | -17.9% | -20.7% | -11.5%
COc1cccc(CNc2nc3c(S(=O)(=O)c4ccccc4)nnn3c3ccccc23)c1 | 2.54% | 0.072% | 8.44% | -8.82% | 2.66%
CCN1C(=O)c2cc(C(=O)NCc3ccccc3F)nn2CC1(C)C(=O)NC1CCCC1 (stereo not given) | 8.69% | 0.33% | 0.068% | 11.3% | 7.74%
Cc1n[nH]c(C)c1C(N)C(=O)NCc1ccccc1-n1ccnc1C (stereo not given) | -1.32% | -6.83% | -12% | -3.38% | 1.31%
Cc1cc(C(=O)N2CCC(OCC3CC3)C2)n(C)n1 (stereo not given) | -0.358% | 1.85% | 2.11% | -1.31% | -0.458%
CN(CC1(C)CCOCC1)C(=O)c1ccccn1 | -3.75% | -5.25% | -3.01% | -10.9% | -6.09%
CC(=O)N1CCC(CC(=O)N2C[C@@H](Oc3ccccc3)C[C@H]2C(=O)N2CCOCC2)CC1 | -1.15% | -2.41% | 1.75% | -2.43% | -9.29%
CCCCc1oc2ccc(NS(C)(=O)=O)cc2c1C(=O)c1ccc(OCCCN(CCCC)CCCC)cc1 | 1.1% | 6.39% | -4.7% | -17% | 1.57%
CCN1C(=O)c2cc3ccccc3n2CC1(C)C(=O)NCC(=O)NCc1ccc(F)cc1 (stereo not given) | -3.79% | 0% | 2.15% | -1.65% | 0.188%
CC(=O)N[C@H](C(=O)O)C(C)(C)SN=O | -0.641% | 5.42% | -0.381% | -2.58% | 4.65%
Cc1cc2c(cc3n2CC(C)(C(=O)NC2CCCCCC2)N(CCN(CC(C)C)CC(C)C)C3=O)o1 (stereo not given) | -8.15% | 2.9% | -5.79% | -6.5% | -11.3%
Cc1cc(C(=O)NC2CC(c3cc(=O)[nH]cn3)C2)cc(S(N)(=O)=O)c1C (stereo not given) | -6.39% | -4.09% | -0.603% | -8.48% | -3.83%
C=C1[C@@H](C2=CC(=O)OC2)CC[C@@]2(O)[C@@H]1CC1[C@H]2CC[C@@H]2C[C@@H](O[C@H]3O[C@@H](C)[C@@H](O[C@@H]4O[C@H](CO[C@@H]5O[C@H](CO)[C@@H](O)[C@H](O)[C@H]5O)[C@@H](O)[C@H](O)[C@H]4O)[C@H](OC)[C@H]3O)CC[C@]12C (stereo not given in full) | 4.88% | 2.55% | 7.27% | -8.07% | 0.819%

SMILES | activity change, negative = inhibition [1] | activity change, negative = inhibition [2] | activity change, negative = inhibition [3] | activity change, negative = inhibition [4] | activity change, negative = inhibition [5]
CCCn1c(=O)c2ccc(C(=O)NC(C)C)cc2n2c(SCc3cccc(F)c3)nnc12 | 0.493% | 3.07% | -0.733% | 0.072% | -3.1%
OC[C@@H]1CNC[C@H]1c1nc(C2CC2)no1 | -4.54% | -3.56% | -1.06% | -7.68% | -11.3%
COC(=O)c1ncn2c1C(=O)N(Cc1ccccc1Cl)C(C)(C(=O)NCc1ccccc1)C2 (stereo not given) | -1.4% | 0% | 4.32% | 5.2% | 1.81%
CCC1(c2ccccc2)C(=O)NCNC1=O | -3.64% | -0.776% | -0.481% | -10.3% | -3.76%
CC(C)CNC(=O)c1ccc2c(=O)n(C)c3nn(Cc4cccc(F)c4)c(=O)n3c2c1 | 1.4% | 0.36% | 6.6% | 2.91% | 4.95%
Cc1ccc(Nc2cc(-c3cccc(N4C(=O)c5ccccc5C4=O)c3)ncn2)cc1NS(C)(=O)=O | -8.84% | -10.2% | -0.81% | -32.6% | -25.3%
COc1cccc(N2C(=O)CSc3c(c4ccccc4n3C)C2C(=O)NCc2ccc(F)cc2)c1 (stereo not given) | -1.68% | 0% | 5.63% | 0.751% | 1.65%
CN(CCCNC(=O)c1ccc2nc3c(c(Cl)c2c1)CCCC3)Cc1ccccc1 | -13.6% | 7.09% | -47.3% | -32.2% | -7.76%
CC1CCN(S(=O)(=O)c2ccc3c(ccn3CC(=O)NCCc3cccs3)c2)CC1 | 5.88% | 1.09% | 4.19% | -0.291% | 1.19%
CCCCOC(=O)COc1ccc2c(-c3ccccc3)cc(=O)oc2c1 | -5.37% | 2.8% | -2.53% | -4.36% | -11.4%
Cc1cc(C)cc(NC(=O)N2CCC(CCc3nc(C4CCOCC4)no3)CC2)c1 | -6.2% | -9.11% | -2.55% | -8.29% | -5.19%
CCOC(=O)c1cc2n(n1)CC(C)(C(=O)NCc1ccc(C)cc1)N(c1cc(C)cc(C)c1)C2=O (stereo not given) | 2.43% | 1.01% | 4.99% | 2.48% | 3.35%
CC(C)CNC(=O)c1ccc2c(=O)nc3c(-c4cccc(F)c4)n[nH]n3c2c1 | -0.201% | 3.79% | 1.59% | 2.53% | 0.409%
O=C(c1cccc(OC2CN(C3CCSCC3)C2)c1)N1CCCC1 | -3.18% | -1.95% | -5.57% | -6.31% | 0.774%
CCN1c2cc(C(=O)NCCc3ccccc3)ccc2C(=O)N2CCCCCC21 (stereo not given) | -5.07% | -5.83% | -10% | -11.9% | -9.4%
O=C1CC(=O)Nc2cc(S(=O)(=O)Nc3ccc(Br)cc3F)ccc2N1 | 14.6% | 4.6% | 14.4% | 7.11% | 7.89%
CC(C)c1ccc(NS(=O)(=O)c2cc3c(cc2Cl)n(C)c(=O)n3C)cc1 | 1.76% | 0% | -0.829% | -9.12% | -0.28%
CCc1ccc(N2C(=O)CSc3c(c4ccccc4n3C)C2C(=O)NCCCOC(C)C)cc1 (stereo not given) | 2.85% | 2.66% | -4.15% | -3.06% | -1.87%
COc1ccccc1CNc1nc2c(S(=O)(=O)c3ccc(C)c(C)c3)nnn2c2ccccc12 | -5.43% | 1.18% | -2.85% | -0.843% | -6.7%
Cc1nn(CC(=O)NCCCN2CCCCC2)c(=O)c2nc(-c3ccccc3)sc12 | -7.82% | -5.93% | -36.4% | -8.05% | -2.68%
